To fix the notation:
B1: PhoQ; a variant is named by its letters at X, in order, P23837 (parent)
chain: MKKLLRLFFPLSLRVRFLLATAAVVLVLSLAYGMVALIGYSVSFDKTTFRLLRGESNLFYTLAKWENNKLHVELPENIDKQSPTMTLIYDENGQLLWAQRDVPWLMKMIQPDWLKSNGFHEIEADVNDTSLLLSGDHSIQQQLQEVREDDDDAEMTHSVAVNVYPATSRMPKLTIVVVDTIPVELKSSYMVWSWFIYVLSANLLLVIPLLWVAAWWSLRPIEALAKEVRELEEHNRELLNPATTRELTSLVRNLNRLLKSERERYDKYRTTLTDLTHSLKTPLXXLQXXLRSLRSEKMSVSDAEPVMLEQISRISQQIGYYLHRASMRGGTLLSRELHPVAPLLDNLTSALNKVYQRKGVNISLDISPEISFVGEQNDFVEVMGNVLDNACKYCLEFVEISARQTDEHLYIVVEDDGPGIPLSKREVIFDRGQRVDTLRPGQGVGLAVAREITEQYEGKIVAGESMLGGARMEVIFGRQHSAPKDE

This note sets out measurements from a collection of fitness landscapes (doi:10.1126/science.1257360).

The other results are listed elsewhere or left out.

In this test the parent is B1. The test is described as follows: enrichment ratio after two sorts for PhoP signalling (ratio (wild type AVST 3.29)); higher = more functional. Particulars: with PhoP (E. coli).
As for WQYK, the enrichment ratio is not above 0.25.
On to EQSY, for which the enrichment ratio was not above 0.25.
In the case of NYTS it was not above 0.25; in that of DGAQ, not above 0.25; in that of YWPS, not above 0.25.
Regarding KDTV, the enrichment ratio is not above 0.25.
As to ACVY, the enrichment ratio was not above 0.25.
In the case of KSFR it was not above 0.25.
In the case of WQFQ it was not above 0.25.
GISK: the enrichment ratio is 4.87.
As for WGGI, the enrichment ratio was not above 0.25.
In the case of WHNW it was not above 0.25; in that of MCCT, not above 0.25.
On to SVSS, for which the enrichment ratio stood at 10.1.
With QSHW, the enrichment ratio was not above 0.25.
For the variant KAVE, the enrichment ratio was not above 0.25.
Turning to KRRH, the enrichment ratio is not above 0.25.
With WNKY, the enrichment ratio is not above 0.25.
WYAQ: the enrichment ratio was not above 0.25.
Take IRIS: the enrichment ratio is not above 0.25.
Regarding IWGD, the enrichment ratio is not above 0.25.
For GQQG the value was not above 0.25; for LAHS, not above 0.25; for QSYG, 8.26.
As for AWWH, the enrichment ratio is not above 0.25.
On to LSQL, for which the enrichment ratio was not above 0.25.
Regarding RCLG, the enrichment ratio was not above 0.25.
For KQCL, the enrichment ratio is not above 0.25.
As for TGIT, the enrichment ratio is not above 0.25.
RPRH: the enrichment ratio was not above 0.25.
For SHTE the value was not above 0.25.
For VPNT the value was not above 0.25.
NFAI: the enrichment ratio is not above 0.25.
Regarding VVTY, the enrichment ratio was not above 0.25.
With YGSK, the enrichment ratio was not above 0.25.
On to ICVF, for which the enrichment ratio is not above 0.25.
As for IGQR, the enrichment ratio is not above 0.25.
Take NKVG: the enrichment ratio is not above 0.25.
For QDKF, the enrichment ratio is not above 0.25.
For HSTK the value was not above 0.25; for SDTQ, not above 0.25.
EDWV: the enrichment ratio was not above 0.25.
PLHR: the enrichment ratio was not above 0.25.
For DTKG, the enrichment ratio is not above 0.25.
As for HPWK, the enrichment ratio is not above 0.25.
Take FYSP: the enrichment ratio was not above 0.25.
As to HPTK, the enrichment ratio was not above 0.25.
With VGKG, the enrichment ratio is not above 0.25.
QWVA: the enrichment ratio is not above 0.25.
For the variant LIMW, the enrichment ratio is not above 0.25.
Consider IHAW, for which the enrichment ratio is not above 0.25.
In the case of LAIG it was not above 0.25; in that of VQEI, not above 0.25; in that of FITW, 0.679.
For THCM, the enrichment ratio amounted to 6.31.
On to RSRV, for which the enrichment ratio was not above 0.25.
In the case of WTGF it was not above 0.25; in that of GFIK, not above 0.25.
Consider HNHV, for which the enrichment ratio is not above 0.25.
For EDAI, the enrichment ratio is not above 0.25.
With RVLL, the enrichment ratio was not above 0.25.
In the case of AHWF it was not above 0.25.
As for IEFC, the enrichment ratio was not above 0.25.
ISNL: the enrichment ratio was not above 0.25.
For the variant MSKS, the enrichment ratio was not above 0.25.
With GPWS, the enrichment ratio was not above 0.25.
For MTDV, the enrichment ratio is not above 0.25.
Regarding VLNG, the enrichment ratio is not above 0.25.
For the variant RYTY, the enrichment ratio is not above 0.25.
As for IAMW, the enrichment ratio is not above 0.25.
In the case of VIAV, the enrichment ratio was not above 0.25.
Take TVMM: the enrichment ratio is 0.563.
For the variant LMHR, the enrichment ratio stood at 0.29.
Take EIGF: the enrichment ratio came to 17.3.
In the case of NWRA it was not above 0.25.
On to KASH, for which the enrichment ratio was not above 0.25.
On to GHLQ, for which the enrichment ratio was not above 0.25.
In the case of FHDV, the enrichment ratio is not above 0.25.
For TGEV the value was 26.6.
Regarding WGIY, the enrichment ratio is not above 0.25.
For YSQT the value was not above 0.25; for LHIP, not above 0.25; for STTY, 7.54.
For the variant WTHG, the enrichment ratio is not above 0.25.
For FLQF, the enrichment ratio is not above 0.25.
As for LYNC, the enrichment ratio is not above 0.25.
Consider KTYF, for which the enrichment ratio is not above 0.25.
For the variant YHVR, the enrichment ratio is not above 0.25.
For AFPR the value was not above 0.25; for DWLP, not above 0.25; for PMWL, not above 0.25.
GKEI: the enrichment ratio was not above 0.25.
Take IFPF: the enrichment ratio was not above 0.25.
Turning to QEGF, the enrichment ratio was not above 0.25.
Take VYFQ: the enrichment ratio is not above 0.25.
On to RHQM, for which the enrichment ratio was not above 0.25.
In the case of NDPS, the enrichment ratio was not above 0.25.
For ANNP the value was not above 0.25.
For TAIC, the enrichment ratio was not above 0.25.
On to MGLP, for which the enrichment ratio was not above 0.25.
On to DQTW, for which the enrichment ratio was not above 0.25.
For WHWL the value was not above 0.25.
As to HKVM, the enrichment ratio was not above 0.25.
Turning to VRCC, the enrichment ratio is not above 0.25.
In the case of TVFQ it was not above 0.25.
In the case of IMVT, the enrichment ratio was not above 0.25.
For the variant DCMT, the enrichment ratio is not above 0.25.
Take VTRK: the enrichment ratio is not above 0.25.
For the variant FAEN, the enrichment ratio was not above 0.25.
With HCRQ, the enrichment ratio was not above 0.25.
In the case of PPSI it was not above 0.25; in that of RKLY, not above 0.25; in that of FVHI, not above 0.25.
With MMLA, the enrichment ratio was not above 0.25.
In the case of FPLL, the enrichment ratio was not above 0.25.
As to IQWK, the enrichment ratio is not above 0.25.
For ISNR, the enrichment ratio is not above 0.25.
WHGV: the enrichment ratio is not above 0.25.
Consider ETHG, for which the enrichment ratio is not above 0.25.
For SNYV the value was 0.433.
On to VAYT, for which the enrichment ratio is not above 0.25.
As for YVYI, the enrichment ratio is not above 0.25.
As for PHVN, the enrichment ratio was not above 0.25.
Turning to KLWV, the enrichment ratio was not above 0.25.
HNGL: the enrichment ratio was not above 0.25.
Take YVLR: the enrichment ratio is not above 0.25.
For SNSF, the enrichment ratio was 10.8.
In the case of VGCH, the enrichment ratio came out at 3.36.
In the case of MESI it was 12.5; in that of NCSE, not above 0.25.
In the case of VEAY it was not above 0.25.
Regarding GAVW, the enrichment ratio was not above 0.25.
For WRLL, the enrichment ratio is not above 0.25.
Consider RHHL, for which the enrichment ratio is 0.334.
In the case of GPNW, the enrichment ratio was not above 0.25.
On to QKFE, for which the enrichment ratio is not above 0.25.
As for FEDL, the enrichment ratio is not above 0.25.
As for TKIQ, the enrichment ratio stood at 4.3.
Consider ENYY, for which the enrichment ratio was not above 0.25.
With IRLN, the enrichment ratio was not above 0.25.
For ASKA, the enrichment ratio is not above 0.25.
As to HYQE, the enrichment ratio was not above 0.25.
In the case of YYNE it was not above 0.25; in that of SDPG, not above 0.25; in that of QPLN, not above 0.25.
FCFL: the enrichment ratio was not above 0.25.
For VREE, the enrichment ratio is not above 0.25.
NLKG: the enrichment ratio is not above 0.25.
For the variant SCQF, the enrichment ratio came out at 7.66.
In the case of LNKY it was not above 0.25.
As for SKIE, the enrichment ratio was not above 0.25.
Consider AKNF, for which the enrichment ratio is not above 0.25.
For RLSN the value was not above 0.25; for DHWL, not above 0.25; for SESW, not above 0.25.
Take FAMA: the enrichment ratio was not above 0.25.
Take TVYF: the enrichment ratio was not above 0.25.
As to ERHP, the enrichment ratio is not above 0.25.
For LNWS, the enrichment ratio is not above 0.25.
In the case of LQKP it was not above 0.25.
On to TMWC, for which the enrichment ratio is not above 0.25.
As to WELY, the enrichment ratio was not above 0.25.
For EFSV the value was not above 0.25; for FLYK, not above 0.25; for TATL, 16.3.
In the case of VISQ it was not above 0.25; in that of KTRP, not above 0.25; in that of ICNQ, not above 0.25.
For the variant MIRA, the enrichment ratio is not above 0.25.
For RCSI, the enrichment ratio was not above 0.25.
With DACN, the enrichment ratio is not above 0.25.
In the case of KILF, the enrichment ratio was not above 0.25.
With EFCF, the enrichment ratio was not above 0.25.
In the case of IIYH it was not above 0.25; in that of VSLE, 2.79.
Turning to EVPT, the enrichment ratio is not above 0.25.
With VHDS, the enrichment ratio is not above 0.25.
For HQHK the value was not above 0.25; for ICRQ, not above 0.25.
As to GKWL, the enrichment ratio was not above 0.25.
On to NPSE, for which the enrichment ratio was not above 0.25.
For FLPY the value was not above 0.25; for QYGM, not above 0.25; for TGKI, not above 0.25.
As for HAMQ, the enrichment ratio was not above 0.25.
In the case of GLIH it was not above 0.25; in that of WGLL, 6.16; in that of MKFF, 1.09.
For the variant MGFM, the enrichment ratio was 9.14.
On to RRQK, for which the enrichment ratio is not above 0.25.
Take ENHL: the enrichment ratio was not above 0.25.
In the case of NHNS, the enrichment ratio was not above 0.25.
For LAWF the value was not above 0.25.
Turning to MPAD, the enrichment ratio was not above 0.25.
On to WTRG, for which the enrichment ratio is not above 0.25.
